Laboratory results: the supplement of paper PMC8728848
Some of the results follow.

Key:
Assay in all cases: glycan array binding signal (z-score within array); higher = stronger binding
Conditions in all cases: glycan notation: IUPAC condensed, linker removed
[1] = biological target: GlcNAc(b1-2)[GlcNAc(b1-6)]Man(a1-6)[GlcNAc(b1-4)][GlcNAc(b1-2)Man(a1-3)]Man(b1-4)GlcNAc(b1-4)GlcNAc
In short: (§1)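 Glycan array data were curated from 3228 arrays in the Consortium for Functional Glycomics database and kept only where the protein sequence was available. Glycan names were converted to IUPAC-condensed notation, and columns mapping to the same glycan were averaged. The binding signal is a within-array Z-score, averaged across arrays of the same protein sequence at different concentrations or buffers and across linkers. Negative Z-scores can be read as non-binding.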

GlcNAc(b1-3)Fuc = biological target: GlcNAc(b1-3)Fuc
In short: as §1

GlcNAc(b1-3)Gal = biological target: GlcNAc(b1-3)Gal
In short: as §1

[2] = biological target: GlcNAc(b1-3)Gal(b1-3)GalNAc
In short: as §1

GlcNAc(b1-3)Gal(b1-4)Glc = biological target: GlcNAc(b1-3)Gal(b1-4)Glc
In short: as §1

[3] = biological target: GlcNAc(b1-3)Gal(b1-4)GlcNAc
In short: as §1

[4] = biological target: GlcNAc(b1-3)Gal(b1-4)GlcNAc(b1-2)Man(a1-3)[GlcNAc(b1-3)Gal(b1-4)GlcNAc(b1-2)Man(a1-6)]Man(b1-4)GlcNAc(b1-4)GlcNAc
In short: as §1

[5] = biological target: GlcNAc(b1-3)Gal(b1-4)GlcNAc(b1-2)Man(a1-3)[GlcNAc(b1-3)Gal(b1-4)GlcNAc(b1-2)Man(a1-6)]Man(b1-4)GlcNAc(b1-4)[Fuc(a1-6)]GlcNAc
In short: as §1

[6] = biological target: GlcNAc(b1-3)Gal(b1-4)GlcNAc(b1-2)[GlcNAc(b1-3)Gal(b1-4)GlcNAc(b1-6)]Man(a1-6)[GlcNAc(b1-3)Gal(b1-4)GlcNAc(b1-2)Man(a1-3)]Man(b1-4)GlcNAc(b1-4)GlcNAc
In short: as §1

[7] = biological target: GlcNAc(b1-3)Gal(b1-4)GlcNAc(b1-3)Gal(b1-4)GlcNAc
In short: as §1

[8] = biological target: GlcNAc(b1-3)Gal(b1-4)GlcNAc(b1-3)Gal(b1-4)GlcNAc(b1-2)Man(a1-3)[GlcNAc(b1-3)Gal(b1-4)GlcNAc(b1-3)Gal(b1-4)GlcNAc(b1-2)Man(a1-6)]Man(b1-4)GlcNAc(b1-4)GlcNAc
In short: as §1

[9] = biological target: GlcNAc(b1-3)Gal(b1-4)GlcNAc(b1-3)Gal(b1-4)GlcNAc(b1-2)Man(a1-3)[GlcNAc(b1-3)Gal(b1-4)GlcNAc(b1-3)Gal(b1-4)GlcNAc(b1-2)Man(a1-6)]Man(b1-4)GlcNAc(b1-4)[Fuc(a1-6)]GlcNAc
In short: as §1

[10] = biological target: GlcNAc(b1-3)Gal(b1-4)GlcNAc(b1-3)Gal(b1-4)GlcNAc(b1-2)[GlcNAc(b1-3)Gal(b1-4)GlcNAc(b1-3)Gal(b1-4)GlcNAc(b1-6)]Man(a1-6)[GlcNAc(b1-3)Gal(b1-4)GlcNAc(b1-3)Gal(b1-4)GlcNAc(b1-2)Man(a1-3)]Man(b1-4)GlcNAc(b1-4)[Fuc(a1-6)]GlcNAc
In short: as §1

[11] = biological target: GlcNAc(b1-3)Gal(b1-4)GlcNAc(b1-3)Gal(b1-4)GlcNAc(b1-3)Gal(b1-4)GlcNAc(b1-2)Man(a1-3)[GlcNAc(b1-3)Gal(b1-4)GlcNAc(b1-3)Gal(b1-4)GlcNAc(b1-3)Gal(b1-4)GlcNAc(b1-2)Man(a1-6)]Man(b1-4)GlcNAc(b1-4)GlcNAc
In short: as §1

[12] = biological target: GlcNAc(b1-3)Gal(b1-4)GlcNAc(b1-3)Gal(b1-4)GlcNAc(b1-3)Gal(b1-4)GlcNAc(b1-2)Man(a1-3)[GlcNAc(b1-3)Gal(b1-4)GlcNAc(b1-3)Gal(b1-4)GlcNAc(b1-3)Gal(b1-4)GlcNAc(b1-2)Man(a1-6)]Man(b1-4)GlcNAc(b1-4)[Fuc(a1-6)]GlcNAc
In short: as §1

[13] = biological target: GlcNAc(b1-3)Gal(b1-4)GlcNAc(b1-3)Gal(b1-4)GlcNAc(b1-3)Gal(b1-4)GlcNAc(b1-2)[GlcNAc(b1-3)Gal(b1-4)GlcNAc(b1-3)Gal(b1-4)GlcNAc(b1-3)Gal(b1-4)GlcNAc(b1-6)]Man(a1-6)[GlcNAc(b1-3)Gal(b1-4)GlcNAc(b1-3)Gal(b1-4)GlcNAc(b1-3)Gal(b1-4)GlcNAc(b1-2)Man(a1-3)]Man(b1-4)GlcNAc(b1-4)[Fuc(a1-6)]GlcNAc
In short: as §1

[14] = biological target: GlcNAc(b1-3)Gal(b1-4)GlcNAc(b1-3)Gal(b1-4)GlcNAc(b1-3)Gal(b1-4)GlcNAc(b1-3)Gal(b1-4)GlcNAc(b1-2)Man(a1-3)[GlcNAc(b1-3)Gal(b1-4)GlcNAc(b1-3)Gal(b1-4)GlcNAc(b1-3)Gal(b1-4)GlcNAc(b1-3)Gal(b1-4)GlcNAc(b1-2)Man(a1-6)]Man(b1-4)GlcNAc(b1-4)GlcNAc
In short: as §1

[15] = biological target: GlcNAc(b1-3)Gal(b1-4)GlcNAc(b1-3)Gal(b1-4)GlcNAc(b1-3)Gal(b1-4)GlcNAc(b1-3)Gal(b1-4)GlcNAc(b1-2)Man(a1-3)[GlcNAc(b1-3)Gal(b1-4)GlcNAc(b1-3)Gal(b1-4)GlcNAc(b1-3)Gal(b1-4)GlcNAc(b1-3)Gal(b1-4)GlcNAc(b1-2)Man(a1-6)]Man(b1-4)GlcNAc(b1-4)[Fuc(a1-6)]GlcNAc
In short: as §1

[16] = biological target: GlcNAc(b1-3)Gal(b1-4)GlcNAc(b1-3)Gal(b1-4)GlcNAc(b1-3)Gal(b1-4)GlcNAc(b1-3)Gal(b1-4)GlcNAc(b1-2)[GlcNAc(b1-3)Gal(b1-4)GlcNAc(b1-3)Gal(b1-4)GlcNAc(b1-3)Gal(b1-4)GlcNAc(b1-3)Gal(b1-4)GlcNAc(b1-6)]Man(a1-6)[GlcNAc(b1-3)Gal(b1-4)GlcNAc(b1-3)Gal(b1-4)GlcNAc(b1-3)Gal(b1-4)GlcNAc(b1-3)Gal(b1-4)GlcNAc(b1-2)Man(a1-3)]Man(b1-4)GlcNAc(b1-4)[Fuc(a1-6)]GlcNAc
In short: as §1

[17] = biological target: GlcNAc(b1-3)Gal(b1-4)GlcNAc(b1-3)Gal(b1-4)GlcNAc(b1-3)GalNAc
In short: as §1

[18] = biological target: GlcNAc(b1-3)Gal(b1-4)GlcNAc(b1-3)GalNAc
In short: as §1

[19] = biological target: GlcNAc(b1-3)Gal(b1-4)GlcNAc(b1-3)[GlcNAc(b1-3)Gal(b1-4)GlcNAc(b1-3)]GalNAc
In short: as §1

[20] = biological target: GlcNAc(b1-3)Gal(b1-4)GlcNAc(b1-6)[Gal(b1-3)]GalNAc
In short: as §1

[21] = biological target: GlcNAc(b1-3)Gal(b1-4)GlcNAc(b1-6)[GlcNAc(b1-3)Gal(b1-3)]GalNAc
In short: as §1

[22] = biological target: GlcNAc(b1-3)Gal(b1-4)GlcNAc(b1-6)[GlcNAc(b1-3)]Gal(b1-4)GlcNAc
In short: as §1

GlcNAc(b1-3)GalNAc = biological target: GlcNAc(b1-3)GalNAc
In short: as §1

GlcNAc(b1-3)Man = biological target: GlcNAc(b1-3)Man
In short: as §1

[23] = biological target: GlcNAc(b1-3)[GlcNAc(b1-4)][GlcNAc(b1-6)]GlcNAc
In short: as §1

[24] = biological target: GlcNAc(b1-3)[GlcNAc(b1-6)]Gal(b1-4)GlcNAc
In short: as §1

[25] = biological target: GlcNAc(b1-3)[GlcNAc(b1-6)]GalNAc
In short: as §1

B1: Siglec-F (Mus musculus), Q920G3 (protein)
chain: MRWAWLLPLLWAGCLATDGYSLSVTGSVTVQEGLCVFVACQVQYPNSKGPVFGYWFREGANIFSGSPVATNDPQRSVLKEAQGRFYLMGKENSHNCSLDIRDAQKIDTGTYFFRLDGSVKYSFQKSMLSVLVIALTEVPNIQVTSTLVSGNSTKLLCSVPWACEQGTPPIFSWMSSALTSLGHRTTLSSELNLTPRPQDNGTNLTCQVNLPGTGVTVERTQQLSVIYAPQKMTIRVSWGDDTGTKVLQSGASLQIQEGESLSLVCMADSNPPAVLSWERPTQKPFQLSTPAELQLPRAELEDQGKYICQAQNSQGAQTASVSLSIRSLLQLLGPSCSFEGQGLHCSCSSRAWPAPSLRWRLGEGVLEGNSSNGSFTVKSSSAGQWANSSLILSMEFSSNHRLSCEAWSDNRVQRATILLVSGPKVSQAGKSETSRGTVLGAIWGAGLMALLAVCLCLIFFTVKVLRKKSALKVAATKGNHLAKNPASTINSASITSSNIALGYPIQGHLNEPGSQTQKEQPPLATVPDTQKDEPELHYASLSFQGPMPPKPQNTEAMKSVYTEIKIHKC
glycan array binding signal (z-score) [1]: -0.163 | glycan array binding signal (z-score) (GlcNAc(b1-3)Fuc): -0.135 | glycan array binding signal (z-score) (GlcNAc(b1-3)Gal): -0.135 | glycan array binding signal (z-score) [2]: -0.127 | glycan array binding signal (z-score) (GlcNAc(b1-3)Gal(b1-4)Glc): -0.122 | glycan array binding signal (z-score) [3]: -0.118 | glycan array binding signal (z-score) [4]: -0.149 | glycan array binding signal (z-score) [5]: -0.083 | glycan array binding signal (z-score) [6]: -0.141 | glycan array binding signal (z-score) [7]: -0.126 | glycan array binding signal (z-score) [8]: -0.064 | glycan array binding signal (z-score) [9]: -0.134 | glycan array binding signal (z-score) [10]: -0.064 | glycan array binding signal (z-score) [11]: 0.031 | glycan array binding signal (z-score) [12]: -0.142 | glycan array binding signal (z-score) [13]: -0.079 | glycan array binding signal (z-score) [14]: 0.025 | glycan array binding signal (z-score) [15]: -0.133 | glycan array binding signal (z-score) [16]: -0.126 | glycan array binding signal (z-score) [17]: -0.143 | glycan array binding signal (z-score) [18]: -0.147 | glycan array binding signal (z-score) [19]: -0.139 | glycan array binding signal (z-score) [20]: -0.15 | glycan array binding signal (z-score) [21]: -0.163 | glycan array binding signal (z-score) [22]: -0.168 | glycan array binding signal (z-score) (GlcNAc(b1-3)GalNAc): -0.12 | glycan array binding signal (z-score) (GlcNAc(b1-3)Man): -0.125 | glycan array binding signal (z-score) [23]: -0.117 | glycan array binding signal (z-score) [24]: -0.123 | glycan array binding signal (z-score) [25]: -0.123
